Hit rate of the full screen: of about 39,000 compounds, about 220 (0.56%) showed activity. This is one part of the list.
Each molecule was assayed on Escherichia coli K-12 BW25113 (assay: relative growth (OD600 normalised to plate interquartile mean) (fraction); higher = less growth inhibition, active = 0.2 or less). Conditions: 50 µM; LB; incubation time: overnight (16-24 h).
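Further: static incubation at 37 °C against the wild-type strain, values averaged over two biological replicates.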

SMILES | relative growth
O=C(CNc1ccc2c(c1)oc1ccccc12)c1ccc(F)cc1 | inactive: 0.997
CC(C)NC(=O)N1Cc2cc(C(=O)NC3CCCCC3)nc(-c3cccc(-c4cccnc4)c3)c2[C@H]1CCO | inactive: 0.968
COc1ccc(S(=O)(=O)N(C)C[C@H]2Oc3ccc(NC(=O)Nc4cccc5ccccc45)cc3C(=O)N([C@H](C)CO)C[C@@H]2C)cc1 | inactive: 0.997
C[C@@H]1CN([C@@H](C)CO)C(=O)Cc2cc(NC(=O)Nc3cccc4ccccc34)ccc2O[C@@H]1CN(C)Cc1ccc(-c2ccccc2)cc1 | inactive: 1.03
O=C(C[C@H]1CC=CC[C@H](Cc2ccc(F)cc2)C(=O)OC[C@@H](Cc2c[nH]c3ccccc23)NC1=O)NCCO | inactive: 0.986
COc1ccc(S(=O)(=O)Nc2ccc3c(c2)CC(=O)N([C@@H](C)CO)C[C@H](C)[C@@H](CN(C)Cc2ccc(C(=O)O)cc2)O3)cc1 | inactive: 1
C[C@H]1CN([C@@H](C)CO)C(=O)c2cccc(NC(=O)C3CC3)c2O[C@@H]1CN(C)Cc1ccc2c(c1)OCO2 | inactive: 0.728
Cc1noc(C)c1NC(=O)Nc1ccc2c(c1)C(=O)N([C@@H](C)CO)C[C@@H](C)[C@@H](CN(C)Cc1ccccc1)OCCCC[C@@H](C)O2 | inactive: 1.01
C[C@H](CO)N1C[C@H](C)[C@H](CN(C)Cc2ccccc2)Oc2ccc(NC(=O)Nc3cccc4ccccc34)cc2C1=O | inactive: 0.986
Cc1ccc(S(=O)(=O)[N-]Cl)cc1.[Na+] | inactive: 1.05
C[C@@H]1CN([C@@H](C)CO)S(=O)(=O)c2ccc(-c3cccc(C#N)c3)cc2O[C@@H]1CN(C)C(=O)c1cccnc1 | inactive: 0.987
NCCN1CCC[C@H](C(N)=O)C1 | inactive: 1
C[C@@H]1CCCCO[C@@H](CN(C)S(C)(=O)=O)[C@H](C)CN([C@@H](C)CO)C(=O)c2cc(NS(C)(=O)=O)ccc2O1 | inactive: 1.01
Nc1ncnc(NC[C@H]2CCCO2)c1[N+](=O)[O-] | inactive: 0.982
C[C@@H]1CCCCO[C@H](CN(C)S(=O)(=O)c2ccccc2)[C@H](C)CN([C@H](C)CO)C(=O)c2cc(NC(=O)Nc3ccc(C(F)(F)F)cc3)ccc2O1 | inactive: 0.997
CC[C@@H](C)NC(=O)Cn1cnc2c1c(=O)n(C)c(=O)n2C | inactive: 0.949
C[C@@H]1CN([C@@H](C)CO)C(=O)c2cc(NC(=O)Nc3ccccc3)ccc2O[C@H]1CN(C)Cc1ccc(Cl)c(Cl)c1 | inactive: 0.994
Cc1ccc(S(=O)(=O)N(C)C[C@@H]2OCCCC[C@@H](C)Oc3ccc(NC(=O)CCC(F)(F)F)cc3C(=O)N([C@H](C)CO)C[C@H]2C)cc1 | inactive: 1.01
C[C@@H]1CCCCO[C@@H](CN(C)CC2CC2)[C@H](C)CN([C@@H](C)CO)C(=O)c2cc(NC(=O)NC3CCCCC3)ccc2O1 | inactive: 1.02
NC(=O)NCC#Cc1ccc2c(c1)[C@]1(C(=O)N2)[C@H](C(N)=O)[C@H]2C(=O)O[C@H](c3ccccc3)[C@H](c3ccccc3)N2[C@@H]1c1ccccc1OCCO | inactive: 1.05

SMILES | relative growth
Cc1nc(C(N)=O)c(N)n1CCO | inactive: 0.995
Cc1cccc(S(=O)(=O)N2C[C@H](O)COC[C@@H]3O[C@@H](CC(=O)NCc4ccc5c(c4)OCO5)CC[C@H]32)c1 | inactive: 1.01
Cc1noc(C)c1NC(=O)N(C)C[C@H]1Oc2c(NC(=O)c3ccncc3)cccc2C(=O)N([C@@H](C)CO)C[C@@H]1C | inactive: 0.98
Cc1noc(C)c1NC(=O)Nc1ccc2c(c1)C(=O)N([C@@H](C)CO)C[C@H](C)[C@H](CN(C)C(=O)Nc1ccccc1)OCCCC[C@H](C)O2 | inactive: 0.98
COc1ccc(CN(C)C[C@@H]2OCCCC[C@@H](C)Oc3ccc(NC(=O)c4ccncc4)cc3C(=O)N([C@H](C)CO)C[C@@H]2C)cc1 | inactive: 0.99
C[C@H](CO)N1C[C@H](C)[C@@H](CN(C)C(=O)CCC(F)(F)F)OCCCC[C@H](C)Oc2ccc(NC(=O)NC3CCCCC3)cc2C1=O | inactive: 0.998
Cn1cnc2c1c(=O)[nH]c(=O)n2C | inactive: 1.01
C[C@@H]1CN([C@H](C)CO)C(=O)CCCn2nncc2CO[C@@H]1CN(C)S(=O)(=O)c1cn(C)cn1 | inactive: 1
C[C@H](CO)N1C[C@H](C)[C@@H](CN(C)C(=O)Nc2ccccc2)OCCCC[C@H](C)Oc2ccc(NC(=O)c3ccncc3)cc2C1=O | inactive: 0.993
CC(C)CCCC(C)NC(C)C.Cl (stereo not drawn) | inactive: 1.06
CN1C(=O)C[C@@H]2[C@@H]1CCN2C(=O)c1csnn1 | inactive: 0.997
CC1(C)CCC(c2ccc(Cl)cc2)=C(CN2CCN(c3ccc(C(=O)NS(=O)(=O)c4ccc(N[C@@H](CCN5CCOCC5)CSc5ccccc5)c(S(=O)(=O)C(F)(F)F)c4)cc3)CC2)C1 | inactive: 0.999
C[C@@H](O)CCCCn1c(=O)c2c(ncn2C)n(C)c1=O | inactive: 1.01
C[C@H]1CCCCO[C@@H](CN(C)S(=O)(=O)c2ccc(F)cc2)[C@@H](C)CN([C@@H](C)CO)C(=O)c2cc(NC(=O)Nc3cccc4ccccc34)ccc2O1 | inactive: 1.03
C[C@@H]1CN([C@@H](C)CO)C(=O)c2cccc(NC(=O)Nc3cccc4ccccc34)c2O[C@@H]1CN(C)S(=O)(=O)c1cccs1 | inactive: 0.981
Cc1cc(C(=O)Nc2cccc3c2O[C@H](CN(C)C(=O)NC(C)C)[C@H](C)CN([C@@H](C)CO)C3=O)n(C)n1 | inactive: 1.05
O=C(C[C@@H]1CC[C@@H]2[C@H](COC[C@H](O)CN2S(=O)(=O)c2cccc(Cl)c2)O1)NCc1ccc2c(c1)OCO2 | inactive: 0.882
Cc1ccc(S(=O)(=O)N(C)C[C@@H]2OCCCC[C@H](C)Oc3ccc(NC(=O)Nc4cccc5ccccc45)cc3C(=O)N([C@@H](C)CO)C[C@H]2C)cc1 | inactive: 1.05
C[C@@H]1CCCCO[C@@H](CN(C)C(=O)Nc2ccc(F)cc2)[C@H](C)CN([C@H](C)CO)C(=O)c2cc(NC(=O)c3ccncc3)ccc2O1 | inactive: 0.815
Cc1cc(O[C@@H](CCC(F)(F)F)c2ccc(C(=O)NCCC(=O)O)cc2)cc(C)c1-c1ccc(C(C)(C)C)cc1 | inactive: 0.834

SMILES | relative growth
COc1ccc(S(=O)(=O)Nc2ccc3c(c2)C(=O)N([C@H](C)CO)C[C@H](C)[C@@H](CN(C)Cc2ccc4c(c2)OCO4)OCCCC[C@@H](C)O3)cc1 | inactive: 1.02
O=C(C[C@@H]1CC[C@H]2[C@@H](COC[C@H](O)CN2C(=O)c2cccnc2)O1)NCC1CC1 | inactive: 0.952
CC(C)(CO)C(O)C(=O)NCCCO (stereo not drawn) | inactive: 1.13
COc1ccc(S(=O)(=O)Nc2cccc3c2O[C@@H](CN(C)C(=O)Nc2cccc4ccccc24)[C@H](C)CN([C@@H](C)CO)C3=O)cc1 | inactive: 1.05
CN(C)CC(=O)N[C@@H]1CC[C@@H](CCNS(=O)(=O)c2ccccc2)O[C@@H]1CO | inactive: 1.01
C[C@@H]1NC(=O)[C@@H]2CCCN2C(=O)[C@H](CC(N)=O)NC(=O)[C@@H]2CSSC[C@H](N)C(=O)N[C@H]3CSSC[C@H](NC1=O)C(=O)N[C@@H]([C@@H](C)O)C(=O)NCC(=O)N[C@H](C(=O)N[C@@H](Cc1ccc(O)cc1)C(=O)O)CSSC[C@H](NC(=O)[C@H](Cc1ccc(O)cc1)NC(=O)[C@H](CCC(=O)O)NC3=O)C(=O)N2 | inactive: 0.968
COc1ccc(S(=O)(=O)N(C)C[C@@H]2Oc3c(NS(C)(=O)=O)cccc3C(=O)N([C@H](C)CO)C[C@H]2C)cc1 | inactive: 0.981
OC(c1ccc(-c2ccc(CN3CCN(Cc4ccncc4)CC3)cc2)c(F)c1)(C(F)(F)F)C(F)(F)F | inactive: 1.04
C[C@H](CO)N1C[C@H](C)[C@@H](CN(C)C(=O)Nc2ccccc2)OCCCC[C@H](C)Oc2ccc(NC(=O)C3CCCCC3)cc2C1=O | inactive: 1.03
C[C@H](CO)N1C[C@H](C)[C@H](CN(C)Cc2ccccc2)OCCCC[C@H](C)Oc2ccc(NC(=O)CCC(F)(F)F)cc2C1=O | inactive: 0.974
O=C(O[C@@H]1O[C@H]2COC(=O)c3cc(O)c(O)c(O)c3-c3c(cc(O)c(O)c3O)C(=O)O[C@@H]([C@H]1O)[C@@H]2OC(=O)c1cc(O)c(O)c(O)c1-c1c(C(=O)O)cc(O)c(O)c1O)c1cc(O)c(O)c(O)c1 | inactive: 0.557
COC(=O)[C@@H]1CC(=O)N(C(C)C)C1 | inactive: 1
CO[C@H]1CN(C)C(=O)c2cc(NS(=O)(=O)CC(F)(F)F)ccc2OC[C@@H](C)N(Cc2ccccn2)C[C@@H]1C | inactive: 0.887
C[C@@H]1CCCCO[C@H](CN(C)C(=O)CCCN(C)C)[C@@H](C)CN([C@H](C)CO)C(=O)c2cc(NS(C)(=O)=O)ccc2O1 | inactive: 1
C[C@@H]1CN([C@@H](C)CO)C(=O)c2cccc(NS(=O)(=O)c3cn(C)cn3)c2O[C@@H]1CN(C)Cc1ccncc1 | inactive: 0.968
CN(C)C(=O)C[C@H]1C=C[C@@H](NC(=O)C2CCOCC2)[C@@H](CO)O1 | inactive: 1.02
C[C@@H]1CCCCO[C@@H](CN(C)C(=O)Nc2ccc(C(F)(F)F)cc2)[C@@H](C)CN([C@H](C)CO)C(=O)c2cc(NS(=O)(=O)c3ccc(F)cc3)ccc2O1 | inactive: 1.01
C[C@H]1CCCCO[C@H](CN(C)C(=O)Nc2ccc(F)cc2)[C@@H](C)CN([C@@H](C)CO)C(=O)c2cc(NC(=O)c3ccncc3)ccc2O1 | inactive: 1

Reference: the supplement of paper PMC9446081
